Source: PubChem BioAssay (NCI)
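Step 1: Grow cells in 96-well plates. Step 2: Expose to compound for 48 hours at 5 concentrations. Step 3: Interpolate endpoints linearly; if unreached, use highest concentration. GI50 marks 50% less growth. TGI is the concentration that stops growth completely.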

Test system: NCI-H322M lung
Assay: NCI-60 cell line screen, 48 h

SMILES | GI50 | TGI
O=C(Nc1cc(Cl)cc(Cl)c1)Nc1cc(Cl)cc(Cl)c1 | 2.82 µM | > 100 µM
O=C(NO)c1ccc(Cn2ccc3c(NCc4ccccc4)ncnc32)cc1 | 6.16 µM | 48.3 µM
CC1(c2ccccc2)NC(=O)N(CC(=O)Nc2ccc(C(=O)/C=C/c3ccccc3)cc2)C1=O (stereo not drawn) | 25.5 µM | > 100 µM
C=C1CC[C@@H]2[C@]3(C)COC(c4cn[nH]c4-c4ccc(F)cc4)O[C@@H]3CC[C@@]2(C)[C@@H]1C/C=C1/C(=O)OCC1O (stereo partly drawn) | 16 µM | 31.9 µM
